{"source": "the supplement of paper PMC3334620", "note": "In all, about 33,000 sequences were measured (“E-score (-0.5 to 0.5)”: median about -0.054, highest 2% from about 0.39 on). The list shows a part of the results."}
{"biological_target": "Ylr278c (UniProt Q05854)", "test": "PBM E-score (8-mer binding enrichment) (E-score (-0.5 to 0.5)); higher = stronger / more preferred TF binding; most listed sequences are background and not binding sites", "details": "protein concentration: 200 nM; construct: GST-DNA-binding domain", "outline": "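Full-length yeast transcription factors or their DNA-binding domains, GST-tagged and expressed with PURExpress, were applied at about 100-200 nM to universal all-10-mer Agilent arrays. These arrays had been made double-stranded by primer extension on fresh or once-stripped slides. Detection used fluorescent anti-GST, normalisation used masliner, and E-scores for ungapped eight-base words pooled with reverse complements came from the Universal PBM Analysis Suite.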"}
{"sequence": "ATCGACTC", "PBM E-score": -0.189}
{"sequence": "CGTCGCAG", "PBM E-score": -0.192}
{"sequence": "AGCCCAAC", "PBM E-score": -0.323}
{"sequence": "GGATGGTA", "PBM E-score": -0.0894}
{"sequence": "GGACATTA", "PBM E-score": 0.336}
{"sequence": "ACGTAACC", "PBM E-score": -0.105}
{"sequence": "CAATGATG", "PBM E-score": -0.0452}
{"sequence": "CCCGGTGA", "PBM E-score": 0.257}
{"sequence": "ACTGACCG", "PBM E-score": 0.11}
{"sequence": "CATCTTGA", "PBM E-score": -0.0937}
{"sequence": "ATCTTGAG", "PBM E-score": -0.166}
{"sequence": "GGGACGAA", "PBM E-score": -0.0291}
{"sequence": "CAGGGCGA", "PBM E-score": -0.0431}
{"sequence": "GGAGATAC", "PBM E-score": 0.305}
{"sequence": "CGTGACAA", "PBM E-score": 0.0435}
{"sequence": "CTTCCCGA", "PBM E-score": 0.125}
{"sequence": "AACGCATT", "PBM E-score": 0.0592}
{"sequence": "CCCCTCCC", "PBM E-score": -0.0571}
{"sequence": "AATCAAGA", "PBM E-score": -0.168}
{"sequence": "TAAAAGTA", "PBM E-score": 0.00072}
{"sequence": "ATGGCCCA", "PBM E-score": -0.00739}
{"sequence": "TGATAAAA", "PBM E-score": -0.0664}
{"sequence": "GATTTCAA", "PBM E-score": 0.214}
{"sequence": "ATAGGACG", "PBM E-score": -0.0359}
{"sequence": "GGCTACCA", "PBM E-score": -0.11}
{"sequence": "AGCCACCT", "PBM E-score": -0.269}
{"sequence": "ATGATTAG", "PBM E-score": -0.0554}
{"sequence": "CGTTACGA", "PBM E-score": 0.0615}
{"sequence": "GGTTCTGA", "PBM E-score": -0.0968}
{"sequence": "GCATGCGA", "PBM E-score": 0.0188}
{"sequence": "GCCGTGAC", "PBM E-score": 0.0202}
{"sequence": "CCGTACTC", "PBM E-score": 0.0606}
{"sequence": "GGTCACCA", "PBM E-score": -0.288}
{"sequence": "CTATCGAG", "PBM E-score": -0.191}
{"sequence": "AAGCTAAT", "PBM E-score": -0.0983}
{"sequence": "CGTGGGGC", "PBM E-score": 0.107}
{"sequence": "AGTTATCG", "PBM E-score": 0.195}
{"sequence": "CTGTGTAC", "PBM E-score": -0.0473}
{"sequence": "ACCAACAT", "PBM E-score": -0.072}
{"sequence": "GCCGCCTA", "PBM E-score": 0.019}
{"sequence": "CAGATCCA", "PBM E-score": -0.0494}
{"sequence": "CAGGTGAA", "PBM E-score": -0.189}
{"sequence": "CCAGCGAA", "PBM E-score": -0.0882}
{"sequence": "CCAAAACC", "PBM E-score": -0.0239}
{"sequence": "GTCAACAA", "PBM E-score": -0.23}
{"sequence": "AGCCAGCC", "PBM E-score": -0.18}
{"sequence": "ACTGTCTG", "PBM E-score": -0.228}
{"sequence": "AAATAGTA", "PBM E-score": 0.0229}
{"sequence": "AGTGTGCC", "PBM E-score": -0.0151}
{"sequence": "CGGGGGTA", "PBM E-score": 0.334}
{"sequence": "CCCGAAAA", "PBM E-score": 0.294}
{"sequence": "AATGCTGT", "PBM E-score": -0.229}
{"sequence": "AGGCTAAT", "PBM E-score": 0.0326}
{"sequence": "CACGCTTA", "PBM E-score": -0.136}
{"sequence": "CATGTACC", "PBM E-score": -0.176}
{"sequence": "GCCTGCCA", "PBM E-score": -0.0756}
{"sequence": "CATAAGAC", "PBM E-score": -0.0531}
{"sequence": "ATGGGTAG", "PBM E-score": -0.221}
{"sequence": "TGACCGAA", "PBM E-score": 0.0673}
{"sequence": "ACTGTAAA", "PBM E-score": 0.0444}
{"sequence": "AAACCAAA", "PBM E-score": -0.08}
{"sequence": "GAGGATTA", "PBM E-score": -0.121}
{"sequence": "GCCGACAC", "PBM E-score": 0.181}
{"sequence": "GAACTTGC", "PBM E-score": -0.00576}
{"sequence": "CTTCGATA", "PBM E-score": -0.00519}
{"sequence": "ACCCGGAG", "PBM E-score": 0.46}
{"sequence": "GCAGCACA", "PBM E-score": -0.0608}
{"sequence": "GGCAGTAA", "PBM E-score": 0.099}
{"sequence": "AAAAAGAG", "PBM E-score": -0.21}
{"sequence": "CGGGACGA", "PBM E-score": 0.0447}
{"sequence": "ACTTAAGC", "PBM E-score": -0.112}
{"sequence": "CCAGGGCC", "PBM E-score": -0.186}
{"sequence": "GGAATGGA", "PBM E-score": 0.0354}
{"sequence": "AGACCGAG", "PBM E-score": 0.189}
{"sequence": "GCGAATAA", "PBM E-score": 0.0644}
{"sequence": "AAGTCCAG", "PBM E-score": -0.0689}
{"sequence": "ACGATAAG", "PBM E-score": 0.119}
{"sequence": "AATTCTAC", "PBM E-score": -0.209}
{"sequence": "GCTTGCAA", "PBM E-score": -0.0736}
{"sequence": "TAATCTCA", "PBM E-score": -0.0434}
{"sequence": "ACGGGCTA", "PBM E-score": -0.081}
{"sequence": "CTTCTGAA", "PBM E-score": -0.00463}
{"sequence": "ACATGGCG", "PBM E-score": -0.165}
{"sequence": "AAGTTAAA", "PBM E-score": -0.151}
{"sequence": "ATAGGTAG", "PBM E-score": -0.186}
{"sequence": "CCGCGACG", "PBM E-score": 0.188}
{"sequence": "GGGGTATA", "PBM E-score": 0.0253}
{"sequence": "CGGCATTC", "PBM E-score": 0.359}
{"sequence": "GGACAAAA", "PBM E-score": 0.333}
{"sequence": "ATGCACCC", "PBM E-score": 0.138}
{"sequence": "AGCCCACA", "PBM E-score": -0.253}
{"sequence": "ACATGGAC", "PBM E-score": -0.249}
{"sequence": "CACTCGAC", "PBM E-score": -0.0709}
{"sequence": "CTGGGAAG", "PBM E-score": -0.172}
